Some of the results follow. The full chains were built here from the parent and the listed change. Values near 0.05 are background.
B1: TEV protease; numbered along this chain (parent)
chain: MGESLFKGPRDYNPISSSICHLTNESDGHTTSLYGIGFGPFIITNKHLFRRNNGTLVVQSLHGVFKVKDTTTLQQHLVDGRDMIIIRMPKDFPPFPQKLKFREPQREERICLVTTNFQTKSMSSMVSDTSCTFPSGDGIFWKHWIQTKDGQCGSPLVSTRDGFIVGIHSASNFTNTNNYFTSVPKNFMELLTNQEAQQWVSGWRLNADSVLWGGHKVFMVKPEEPFQPVKEATQL

Variants of: B1
Test: raw area under fraction-flipped curve 0-4 h after induction (AUC4h, not background-subtracted), DNA-recorder readout of cleavage of the substrate (dimensionless); higher = more cleavage of the substrate by the protease variant
Details: temperature: 34 °C; time window: 0-4 h after rhamnose induction
Procedure: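 In vivo DNA recorder in E. coli TOP10(DE3) ΔrhaA at 34 °C. Each TEVp single-site mutant (parent TEVp 0) is paired with a single-site variant of the 7-mer TEVs (canonical ENLYFQ|S). The substrate sits between flexible linkers in a Bxb1-sfGFP-TEVs-SsrA fusion, so cleavage stabilises Bxb1 and speeds flipping of a recombination array, read by NGS. The value is the raw area under the fraction-flipped curve over 0-4 h after rhamnose induction (AUC4h), with ≥20 reads per time point. It is not background-subtracted; inactive controls average about 0.047.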
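Note: Bxb1 expression induced with 0.2% (w/v) L-rhamnose at OD600 near 0.5, cultures sampled hourly, flipped fraction per protease–substrate barcode pair counted by paired-end Illumina sequencing.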

Variant | area with substrate ENLAFQS | area with substrate ENLCFQS | area with substrate ENLDFQS | area with substrate ENLFFQS | area with substrate ENLGFQS | area with substrate ENLKFQS | area with substrate ENLLFQS | area with substrate ENLNFQS | area with substrate ENLPFQS | area with substrate ENLRFQS | area with substrate ENLVFQS | area with substrate ENLWFQS | area with substrate ENLEFQS | area with substrate ENLHFQS | area with substrate ENLQFQS | area with substrate ENLSFQS | area with substrate ENLIFQS | area with substrate ENLMFQS | area with substrate ENLTFQS
F49Y | 0.057 | 0.0601 | 0.0644 | 0.0711 | 0.0696 | 0.0667 | 0.0685 | 0.0694 | 0.0669 | 0.0568 | 0.0503 | 0.0561 |  |  |  |  |  |  | 
F49D | 0.0631 | 0.0531 | 0.0579 | 0.0525 | 0.0634 | 0.0563 |  | 0.0625 | 0.0408 | 0.0629 | 0.0604 |  | 0.055 | 0.0579 | 0.0555 | 0.0591 |  |  | 
V57S | 0.0536 | 0.0648 | 0.0614 | 0.0722 |  | 0.0844 |  | 0.0522 |  | 0.0676 |  | 0.0558 |  | 0.0746 | 0.0692 | 0.0396 | 0.0865 | 0.0683 | 
V57N | 0.0709 | 0.0668 | 0.0648 | 0.0867 |  |  | 0.0792 | 0.0708 | 0.0613 | 0.0667 |  |  | 0.0667 | 0.0631 |  | 0.033 | 0.0951 |  | 0.0814
K68A | 0.0684 | 0.0667 | 0.0704 | 0.0898 | 0.0487 |  |  | 0.0587 | 0.0626 | 0.074 |  |  | 0.0633 | 0.0635 |  |  | 0.0416 |  | 0.0604
T30R | 0.0567 | 0.0841 | 0.0667 | 0.0871 |  | 0.0764 | 0.0594 | 0.0504 | 0.0572 | 0.0747 | 0.0783 |  |  |  |  |  | 0.0683 |  | 
I43H | 0.0502 | 0.0531 | 0.0469 | 0.0385 | 0.0271 | 0.0582 | 0.0507 | 0.0471 | 0.055 |  | 0.0496 |  | 0.0589 | 0.0428 |  | 0.0558 | 0.0357 |  | 
I43D | 0.0286 | 0.0467 | 0.0417 | 0.0379 | 0.0394 | 0.0432 | 0.0482 | 0.0422 | 0.0474 | 0.0393 | 0.0504 | 0.0535 | 0.04 | 0.0383 |  | 0.0427 |  | 0.0408 | 
H29P | 0.0575 | 0.0567 | 0.0597 | 0.0747 |  |  | 0.0812 |  | 0.0329 | 0.0568 | 0.0884 | 0.0672 |  | 0.0702 |  | 0.0605 | 0.0627 | 0.0628 | 
H29M | 0.0701 |  | 0.0611 | 0.094 | 0.058 | 0.066 | 0.0425 | 0.0657 | 0.0616 | 0.101 |  | 0.0609 | 0.0701 | 0.0643 |  | 0.065 | 0.0845 | 0.0724 | 
H29T | 0.0646 | 0.0754 | 0.0591 | 0.0984 | 0.0673 | 0.0853 |  | 0.0685 | 0.061 |  | 0.0821 | 0.0591 |  | 0.0402 | 0.0848 | 0.0939 | 0.0452 |  | 
H29I | 0.0585 |  |  |  |  | 0.0645 | 0.0831 | 0.0613 |  | 0.07 | 0.0821 | 0.0695 | 0.0737 |  |  | 0.0563 | 0.0846 |  | 
N52Q | 0.0508 | 0.0634 |  | 0.0541 | 0.0699 | 0.0486 | 0.0647 |  |  | 0.0638 |  | 0.0608 | 0.0552 | 0.0826 | 0.045 | 0.0755 | 0.0696 | 0.0532 | 
L22S | 0.0494 |  | 0.0443 | 0.0531 |  | 0.0513 | 0.0592 | 0.0432 | 0.0455 | 0.0511 | 0.0442 | 0.0367 | 0.0415 | 0.0506 | 0.0604 | 0.0478 | 0.0498 | 0.0595 | 0.0467
G37F | 0.0643 | 0.0368 | 0.0555 | 0.0714 | 0.0405 | 0.0611 |  | 0.0598 | 0.0576 | 0.0686 |  | 0.0534 |  | 0.0628 | 0.0643 | 0.0652 | 0.0625 | 0.0577 | 
T31V | 0.0843 | 0.057 | 0.0682 | 0.0901 | 0.0539 | 0.0973 |  | 0.062 | 0.0574 | 0.0836 |  | 0.0808 | 0.0664 | 0.079 | 0.0653 | 0.0686 | 0.0859 | 0.0793 | 
K66D | 0.0763 | 0.0577 | 0.048 | 0.0803 | 0.0585 | 0.0701 | 0.0715 | 0.0586 |  |  |  | 0.0637 |  | 0.0702 | 0.0414 | 0.0712 |  | 0.0676 | 
F41P | 0.0488 | 0.0802 | 0.0578 | 0.0502 |  | 0.0551 | 0.0436 | 0.0575 | 0.0404 | 0.0548 | 0.0594 | 0.0495 | 0.0564 | 0.0576 | 0.0674 | 0.051 | 0.0577 |  | 0.0528
F41A | 0.0619 | 0.0781 |  | 0.0686 |  | 0.0616 |  | 0.056 | 0.041 | 0.0555 |  | 0.0535 |  | 0.0644 | 0.0576 | 0.0483 |  |  | 
F41Q | 0.0626 | 0.0746 | 0.0552 | 0.0654 |  |  |  | 0.0485 | 0.0603 |  | 0.0733 | 0.0619 | 0.0518 | 0.0564 |  | 0.0564 | 0.0622 | 0.0668 | 
F41G | 0.0534 | 0.0442 | 0.0878 | 0.0689 | 0.0753 |  | 0.0623 | 0.0588 | 0.0535 | 0.0562 |  | 0.0304 | 0.0594 | 0.0544 | 0.0442 | 0.0454 | 0.0604 |  | 
D69S | 0.0599 | 0.0625 | 0.0781 | 0.135 | 0.0684 | 0.0744 |  |  | 0.0679 | 0.0753 |  | 0.0674 | 0.0627 | 0.072 | 0.064 | 0.0509 | 0.0821 |  | 0.0712
I42V | 0.0445 | 0.0459 | 0.05 | 0.0637 |  | 0.087 |  | 0.0835 | 0.055 | 0.05 |  | 0.0634 | 0.0576 | 0.0607 |  | 0.0671 | 0.0715 | 0.0838 | 0.0537
S60C | 0.0725 | 0.0646 | 0.0625 | 0.0804 | 0.0747 | 0.0739 | 0.0585 | 0.0584 | 0.0678 | 0.064 | 0.0637 | 0.0713 | 0.0661 | 0.0588 | 0.0721 | 0.0731 | 0.0905 | 0.0879 | 
F65N | 0.0433 | 0.064 | 0.0486 | 0.0763 |  | 0.0762 | 0.0793 | 0.0688 | 0.0503 | 0.0734 |  | 0.055 |  | 0.0472 | 0.0565 |  | 0.0769 |  | 

From the supplement of paper PMC12217912
